Experimental findings from PMC4336329 (PLoS ONE, 2015) are described below.

The whole screen tested about 310,000 compounds, of which about 2,200 (0.71%) showed an effect of 50% or more. Effects have a minus sign here. The list shows a part of the results.

human ether-à-go-go-related gene (hERG) potassium channel, sequence (Q12809 whole entry, looked up): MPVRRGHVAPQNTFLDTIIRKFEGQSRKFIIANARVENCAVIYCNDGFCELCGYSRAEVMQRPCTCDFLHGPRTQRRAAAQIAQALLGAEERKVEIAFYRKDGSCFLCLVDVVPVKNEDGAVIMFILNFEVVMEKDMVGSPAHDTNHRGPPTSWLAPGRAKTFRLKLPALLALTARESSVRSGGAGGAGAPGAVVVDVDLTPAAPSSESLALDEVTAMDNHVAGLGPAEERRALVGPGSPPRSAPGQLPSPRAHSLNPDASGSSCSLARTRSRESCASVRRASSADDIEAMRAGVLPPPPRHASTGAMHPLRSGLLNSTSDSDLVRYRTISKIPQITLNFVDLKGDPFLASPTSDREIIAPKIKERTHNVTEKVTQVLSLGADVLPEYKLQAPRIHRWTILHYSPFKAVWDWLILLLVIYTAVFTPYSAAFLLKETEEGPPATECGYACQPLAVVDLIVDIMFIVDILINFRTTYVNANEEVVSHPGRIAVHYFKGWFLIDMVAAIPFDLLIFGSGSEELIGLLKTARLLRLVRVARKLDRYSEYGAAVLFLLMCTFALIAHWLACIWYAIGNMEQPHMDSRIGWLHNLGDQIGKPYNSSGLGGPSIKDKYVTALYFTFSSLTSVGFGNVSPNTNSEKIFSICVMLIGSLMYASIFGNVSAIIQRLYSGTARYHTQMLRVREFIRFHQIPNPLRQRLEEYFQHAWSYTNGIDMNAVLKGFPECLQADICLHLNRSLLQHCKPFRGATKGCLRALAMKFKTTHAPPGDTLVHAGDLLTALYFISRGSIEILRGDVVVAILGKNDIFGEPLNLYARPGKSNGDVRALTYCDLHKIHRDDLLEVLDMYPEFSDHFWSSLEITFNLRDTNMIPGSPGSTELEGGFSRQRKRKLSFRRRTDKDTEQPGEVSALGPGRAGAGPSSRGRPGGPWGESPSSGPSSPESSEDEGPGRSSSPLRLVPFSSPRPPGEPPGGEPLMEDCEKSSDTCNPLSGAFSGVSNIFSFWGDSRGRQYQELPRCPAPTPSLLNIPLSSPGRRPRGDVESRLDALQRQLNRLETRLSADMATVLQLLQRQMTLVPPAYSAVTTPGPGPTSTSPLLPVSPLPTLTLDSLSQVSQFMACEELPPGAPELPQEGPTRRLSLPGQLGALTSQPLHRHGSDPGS

This test addresses human ether-à-go-go-related gene (hERG) potassium channel (human, UniProt Q12809). The experiment in a line: primary screen, population patch clamp on CHO cells stably expressing hERG.
For `Cc1cccc(N)c1SC1CCCCC1O` (stereo not drawn), the “hERG current change (%, negative = inhibition) at 1uM” value worked out at 2.33%.
Next, `Cc1nn(C)c(C)c1S(=O)(=O)N1CCCC(C(=O)NC2CCCCCC2)C1` (stereo not drawn): 12.5%.
Next, `O=C(/C=C/c1ccc2c(c1)OCO2)N1CCOCC1`: 6.84%; `O=C(Nc1nnc(COc2ccc(Cl)cc2)s1)C1CCCO1` (stereo not drawn): 5.56%; `Cc1ccc(N(C(=O)c2csnn2)C(C(=O)NC2CCCC2)c2ccccn2)cc1` (stereo not drawn): 13.7%.
Take `CC[C@H](C)[C@@H](CN[C@H](CCCCNC)CNC)NCC1CCCC1`: the “hERG current change (%, negative = inhibition) at 1uM” value came out at 17.5%.
The value for `COc1ccc(S(=O)(=O)Nc2ccc(N3CCOCC3)cc2)cc1` was 11.4%; that for `CCCc1cc(=O)oc2cc(OCC(=O)NCC3CCC(C(=O)O)CC3)ccc12` (stereo not drawn) was -6.33%; that for `CC1CC(C)CN(CCCn2c(=S)[nH]c3ccccc3c2=O)C1` (stereo not drawn) was -34%.
Next, `COc1ccc(CC(=O)Nc2ccc(S(=O)(=O)Nc3cc(C)on3)cc2)cc1OC`: 10.3%.
The value for `CCC(=O)Nc1cccc(-c2nc3ccccc3o2)c1` was 14.3%.
Regarding `O=C(NC1CC1)C1=C[C@@H](c2csc3ccccc23)C[C@@H](OCc2ccc(CO)cc2)O1`, the “hERG current change (%, negative = inhibition) at 1uM” value was 11.3%.
The value for `CC(NC(=O)c1cccc(S(=O)(=O)N2CCN(Cc3ccccc3)CC2)c1)c1ccc(Br)cc1` (stereo not drawn) was -10.9%; that for `Cc1ccc(CNC(=O)c2cc3c(s2)CN(Cc2ccccc2)C3)cc1.Cl` was 10.6%.
The value for `O=C1CSCC(=O)N1Cc1ccc(Cl)cc1Cl` was 12%.
With `Cc1c(Cc2ccccc2)sc(NC(=O)/C=C/c2cccc3ccccc23)c1C(N)=O`, the “hERG current change (%, negative = inhibition) at 1uM” value came out at 10.9%.
Turning to `O=C(c1ccc(NC2=NC3CS(=O)(=O)CC3S2)cc1)N1CCN(c2ccc([N+](=O)[O-])cc2)CC1` (stereo not drawn), the “hERG current change (%, negative = inhibition) at 1uM” value is 4.27%.
Turning to `CCOC(=O)c1c(NC(=O)C2C3CCC(O3)C2C(=O)O)sc(C)c1-c1ccc(C)cc1` (stereo not drawn), the “hERG current change (%, negative = inhibition) at 1uM” value is 5.35%.
The value for `CC(C)CN(Cc1c(O)ccc2c(=O)c(-c3ccccc3)coc12)CC(C)C.Cl` was 12.3%; that for `COc1cc(C(=O)NCC(=O)N/N=C/c2ccccn2)cc(OC)c1OC` was 8.11%; that for `O=C(O)C1=C(Nc2ccccc2)OCC1=O` was 14.9%.
Consider `CCOc1cc(C(=O)NC(=S)Nc2nc(C)cc(C)n2)cc(OCC)c1OCC`, for which the “hERG current change (%, negative = inhibition) at 1uM” value is listed as 8.58%.
Regarding `O=C(Nc1ccc(N2CCOCC2)cc1)c1ccc(COc2ccccc2)cc1`, the “hERG current change (%, negative = inhibition) at 1uM” value is 13%.
For the compound `CCOC(=O)c1cc(S(=O)(=O)NCC2CCN(Cc3cccc(C)c3)CC2)cn1C`, the “hERG current change (%, negative = inhibition) at 1uM” value came to 8.79%.
